Source: PubChem BioAssay (Tox21)
Several values for one entry are separate records, joined by “and”; a condition that tells them apart may be missing. Identical values can stand only once. Inconclusive results, whose numbers are uncertain, are shown with a selection of clear calls. For part of these data: Where the call is inconclusive, the potency comes from a doubtful curve fit. Activity calls are given as the source filed them. Unless noted, calls follow the shape of the full dose curve.

Tests used:
[1] = qHTS assay to identify small molecule agonists of the estrogen receptor beta (ER-beta) signaling pathway - cell viability counter screen (AID 1259380; active = well fitted curve in the direction sought with a large enough effect in the repeat runs; inconclusive = weak or mixed curves; inactive = no such curve, though single readings can be large; an effect the other way counts as inactive or inconclusive; also: nearly all actives have a fitted effect of over 30% in size; also: potency is read from the fitted curve at half-maximal effect); conditions: ER-beta-bla HEK293T viability, CellTiter-Glo luminescence, 16 h; series mostly up to 92.4 µM
Method in brief: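 Same-well viability counter screen. Cells: ER-beta-UAS-bla HEK293T, plated 6 hr before compound, in 2% charcoal-stripped FBS. Compound exposure 16 hr, 37C; viability by CellTiter-Glo luminescence after 30 min at room temperature.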

[2] = target: Progesterone receptor (Homo sapiens) (UniProt P06401); assay: qHTS assay to identify small molecule antagonists of the progesterone receptor (PR) signaling pathway (AID 1346795; active = well fitted inhibition curve with a large enough effect in the signal ratio in the repeat runs, not every such curve was filed as active; inconclusive = weak or mixed curves; the % refers to the signal ratio; also: potency is read from the fitted curve at half-maximal effect; as to activity change, negative = inhibition: % is scaled to controls: 0 for no effect and ±100 for the full control effect); conditions: PR-UAS-bla HEK293T, beta-lactamase FRET ratio, 16 h
Method in brief: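 Antagonist mode with agonist R5020 at 1 nM final and 16 hr incubation at 37C. Reporter was beta-lactamase driven by UAS in HEK293T (PR-UAS-bla), 2% charcoal-stripped serum; signal from LiveBLAzer FRET substrate, 2 hr at room temperature.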

[3] = qHTS assay to identify small molecule antagonists of the progesterone receptor (PR) signaling pathway - cell viability counter screen (AID 1346798; active = well fitted curve in the direction sought with a large enough effect in the repeat runs; inconclusive = weak or mixed curves; inactive = no such curve, though single readings can be large; an effect the other way counts as inactive or inconclusive; also: nearly all actives have a fitted effect of over 50% in size; also: potency is read from the fitted curve at half-maximal effect); conditions: PR-UAS-bla HEK293T viability, CellTiter-Glo luminescence, 16 h; series mostly up to 92.4 µM
Method in brief: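 Cytotoxicity read as CellTiter-Glo luminescence (30 min, room temperature) in the same wells as the beta-lactamase readout. HEK293T PR-UAS-bla cells in charcoal-stripped 2% FBS received compound and R5020, then 16 h at 37C, 5% CO2.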

[4] = qHTS assay to identify small molecule agonists of the progesterone receptor (PR) signaling pathway - cell viability counter screen (AID 1346799); conditions: PR-UAS-bla HEK293T viability, CellTiter-Glo luminescence, 16 h; series mostly up to 92.4 µM; also: nearly all actives have a fitted effect of over 45% in size; also: potency is read from the fitted curve at half-maximal effect
Method in brief: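 Cytotoxicity measured by CellTiter-Glo luminescence (30 min, RT) in the same wells as the PR beta-lactamase agonist read. Those HEK293T cells had 16 h compound treatment at 37 C in 2% charcoal-stripped FBS medium.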

[5] = target: Estrogen receptor (Homo sapiens) (UniProt P03372); assay: qHTS assay to identify small molecule agonists of the estrogen receptor alpha (ER-alpha) signaling pathway in the presence of an antagonist (AID 1259383); conditions: VM7Luc4E2 cells, ERE-luciferase, +ICI-182,780, 22 h; series mostly up to 92.4 µM; also: potency is read from the fitted curve at half-maximal effect; nearly all actives have a fitted effect of over 15% in size
Method in brief: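 Cells are hormone-deprived for 5 days (charcoal-stripped FBS, no phenol red), plated for 24hr, spiked with 10.0nM ICI-182,780, then dosed at 15 concentrations. After 22hr at 37C, ONE-Glo luminescence reports ERE-luciferase activity.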

[6] = target: Thyrotropin receptor (Homo sapiens) (UniProt P16473); assay: qHTS assay to identify small molecule antagonists of the thyroid stimulating hormone receptor (TSHR) signaling pathway (AID 1259385); conditions: TSHR-HEK293 cAMP HTRF, TSH-stimulated antagonist mode; activity change, negative = inhibition: at 92.4 µM (top of the series) unless noted; also: % is scaled to controls: 0 for no effect and ±100 for the full control effect; nearly all actives have a fitted effect of over 20% in size
Method in brief: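 Antagonist mode: compound-treated TSHR-expressing HEK293 cells were stimulated with 1.5 ng/mL TSH (final) in presence of Ro20-1724 for 30 min at RT. HTRF cAMP detection after 1 h; each compound tested at 15 concentrations, triplicate.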

[7] = qHTS assay to identify small molecule antagonists of the estrogen receptor beta (ER-beta) signaling pathway - cell viability counter screen (AID 1259382; active = well fitted curve in the direction sought with a large enough effect in the repeat runs; inconclusive = weak or mixed curves; inactive = no such curve, though single readings can be large; an effect the other way counts as inactive or inconclusive; also: nearly all actives have a fitted effect of over 55% in size; also: potency is read from the fitted curve at half-maximal effect); conditions: ER-beta-UAS-bla HEK293T viability, CellTiter-Glo luminescence, 16 h; series mostly up to 92.4 µM
Method in brief: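 Following a 6 hr plating period, HEK293T cells carrying a UAS-driven beta-lactamase reporter under ER-beta control received compounds and 1nM E2 (final). After 16 hr at 37C and 2 hr substrate loading, CellTiter-Glo luminescence indicated viability.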

[8] = qHTS assay to identify small molecule antagonists of the TGF-beta/Smad signaling pathway - cell viability counter screen (AID 1346824; active = well fitted curve in the direction sought with a large enough effect in the repeat runs; inconclusive = weak or mixed curves; inactive = no such curve, though single readings can be large; an effect the other way counts as inactive or inconclusive; also: nearly all actives have a fitted effect of over 50% in size; also: potency is read from the fitted curve at half-maximal effect); conditions: SBE-bla HEK293T viability, CellTiter-Glo luminescence; series mostly up to 76.8 µM
Method in brief: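 Cytotoxicity counter-screen run in the same wells as the beta-lactamase Smad reporter read: CellTiter-Glo luminescence after 30 min at room temperature. HEK 293T SBE-bla cells had 5 hr compound exposure at 37 C with TGF-beta1 (0.25 ng/mL stock).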

[9] = target: Progesterone receptor (Homo sapiens) (UniProt P06401); assay: qHTS assay to identify small molecule agonists of the progesterone receptor (PR) signaling pathway (AID 1346784); conditions: PR-UAS-bla HEK293T, beta-lactamase FRET ratio, 16 h; activation: at 92.4 µM (top of the series) unless noted; also: nearly all actives have a fitted effect of over 30% in size; also: potency is read from the fitted curve at half-maximal effect; as to activation: % is scaled to controls: 0 for no effect and ±100 for the full control effect
Method in brief: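 Agonist qHTS: compounds pinned onto 3,000 PR-UAS-bla HEK 293T cells per well in charcoal-stripped serum medium, 16hr at 37C, then beta-lactamase activity measured by LiveBLAzer FRET fluorescence after 2 hours at room temperature.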

[10] = activity change, negative = inhibition: at 92.4 µM (top of the series) unless noted
Tags tell the direction and shape of the fitted curve or compound fluorescence and quenching.

Chain of UniProt P06401 (P06401 whole entry, looked up): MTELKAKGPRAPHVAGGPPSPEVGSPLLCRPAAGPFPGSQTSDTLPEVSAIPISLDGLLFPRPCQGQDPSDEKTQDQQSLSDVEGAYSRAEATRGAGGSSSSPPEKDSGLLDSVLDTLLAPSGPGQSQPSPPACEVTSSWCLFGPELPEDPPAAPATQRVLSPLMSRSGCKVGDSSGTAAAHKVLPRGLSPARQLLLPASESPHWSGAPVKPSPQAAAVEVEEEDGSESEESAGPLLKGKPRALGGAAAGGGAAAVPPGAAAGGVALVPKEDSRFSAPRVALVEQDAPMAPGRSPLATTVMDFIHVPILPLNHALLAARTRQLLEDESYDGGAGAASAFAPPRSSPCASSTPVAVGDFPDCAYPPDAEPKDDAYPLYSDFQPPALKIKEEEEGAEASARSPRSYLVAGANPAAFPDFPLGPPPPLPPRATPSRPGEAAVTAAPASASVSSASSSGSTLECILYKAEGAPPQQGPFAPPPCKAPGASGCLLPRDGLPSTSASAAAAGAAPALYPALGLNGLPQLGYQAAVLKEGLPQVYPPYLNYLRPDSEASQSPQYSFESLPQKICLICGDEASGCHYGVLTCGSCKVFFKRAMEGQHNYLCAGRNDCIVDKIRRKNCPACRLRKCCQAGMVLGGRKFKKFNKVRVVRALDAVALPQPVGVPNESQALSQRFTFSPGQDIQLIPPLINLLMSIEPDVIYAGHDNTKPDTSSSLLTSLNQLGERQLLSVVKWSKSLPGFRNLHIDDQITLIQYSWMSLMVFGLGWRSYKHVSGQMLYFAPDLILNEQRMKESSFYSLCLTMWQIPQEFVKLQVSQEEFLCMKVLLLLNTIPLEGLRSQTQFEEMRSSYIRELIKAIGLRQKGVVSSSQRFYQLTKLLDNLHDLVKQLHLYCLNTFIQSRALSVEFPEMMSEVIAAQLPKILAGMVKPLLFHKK
Chain of UniProt P16473 (P16473 whole entry, looked up): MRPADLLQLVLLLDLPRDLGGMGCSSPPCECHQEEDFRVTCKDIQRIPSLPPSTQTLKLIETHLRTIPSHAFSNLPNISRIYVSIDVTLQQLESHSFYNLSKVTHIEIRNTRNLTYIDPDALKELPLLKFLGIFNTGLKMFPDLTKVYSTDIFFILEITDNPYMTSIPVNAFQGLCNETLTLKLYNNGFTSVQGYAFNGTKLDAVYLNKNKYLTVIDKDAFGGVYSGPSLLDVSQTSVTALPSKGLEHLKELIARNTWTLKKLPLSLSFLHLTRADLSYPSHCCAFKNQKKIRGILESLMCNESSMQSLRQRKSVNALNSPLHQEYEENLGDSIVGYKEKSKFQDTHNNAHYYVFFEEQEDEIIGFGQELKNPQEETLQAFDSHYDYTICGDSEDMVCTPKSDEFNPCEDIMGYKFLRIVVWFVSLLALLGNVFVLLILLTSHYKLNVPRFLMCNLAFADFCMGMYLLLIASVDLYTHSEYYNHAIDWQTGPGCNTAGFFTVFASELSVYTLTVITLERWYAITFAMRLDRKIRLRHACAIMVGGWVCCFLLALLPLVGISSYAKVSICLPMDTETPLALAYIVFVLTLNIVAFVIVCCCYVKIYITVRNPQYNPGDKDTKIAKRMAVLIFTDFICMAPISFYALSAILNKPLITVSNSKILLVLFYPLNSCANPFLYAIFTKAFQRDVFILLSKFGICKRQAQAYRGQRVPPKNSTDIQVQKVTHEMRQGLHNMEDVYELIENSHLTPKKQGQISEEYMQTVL
Chain of UniProt P03372 (P03372 whole entry, looked up): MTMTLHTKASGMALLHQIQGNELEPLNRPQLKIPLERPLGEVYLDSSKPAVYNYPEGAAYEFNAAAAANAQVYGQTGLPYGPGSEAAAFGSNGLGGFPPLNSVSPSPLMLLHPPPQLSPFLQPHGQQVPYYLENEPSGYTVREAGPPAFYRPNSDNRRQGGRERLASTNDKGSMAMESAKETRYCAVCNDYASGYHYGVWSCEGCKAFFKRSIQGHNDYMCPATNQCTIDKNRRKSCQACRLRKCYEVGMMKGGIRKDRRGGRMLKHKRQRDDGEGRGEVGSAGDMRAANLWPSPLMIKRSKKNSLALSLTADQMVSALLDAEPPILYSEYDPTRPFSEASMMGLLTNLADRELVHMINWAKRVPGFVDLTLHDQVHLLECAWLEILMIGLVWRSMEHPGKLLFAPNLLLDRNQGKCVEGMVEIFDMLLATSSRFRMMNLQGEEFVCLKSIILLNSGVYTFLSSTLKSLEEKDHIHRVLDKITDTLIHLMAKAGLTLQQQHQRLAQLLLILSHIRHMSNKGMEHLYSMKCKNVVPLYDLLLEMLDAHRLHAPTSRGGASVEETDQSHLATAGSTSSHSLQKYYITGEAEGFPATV

COC(N)=O
Potency [1]: inconclusive: 68.6 µM [cytotoxic, single point]
Potency [2, 10]: inconclusive: 68.6 µM [rising, single point]
Potency [3]: active: 43.3 µM
Potency [4]: inconclusive: 24.3 µM [cytotoxic, partial curve, poor fit]

CCCCOC(=O)c1ccccc1N
Potency [1]: inconclusive: 68.9 µM [cytotoxic, single point]
Potency [4]: inactive

CON(C)C(=O)Nc1ccc(Cl)c(Cl)c1
Potency [5]: inconclusive: 34.4 µM [activator, partial curve]
Potency [2, 10]: inconclusive: 68.6 µM [rising, partial curve]
activity change, negative = inhibition [2, 10]: inconclusive: -55.4%
Potency [4]: inconclusive: 21.8 µM [rising, single point] and inconclusive: 61.1 µM [rising, single point]

CCC[N+]1(C)CCCC1
Potency [1]: inactive
Potency [4]: inactive and inconclusive: 6.09 µM [cytotoxic, single point] and inconclusive: 24.1 µM [cytotoxic, single point]

Cc1[nH]c(=O)n(C(C)(C)C)c(=O)c1Cl
Potency [6]: inactive
Potency [2, 10]: inactive

C=CCN=C=S
Potency [1]: inactive
Potency [2, 10]: inconclusive: 27.9 µM [rising, full curve]
Potency [4]: inconclusive: 55.7 µM [cytotoxic, single point]

C=C1CC[C@@]2(O)[C@H]3Cc4ccc(O)c5c4[C@@]2(CCN3CC2CC2)[C@H]1O5
Potency [1]: inconclusive: 11.9 µM [rising, partial curve, poor fit]
Potency [3]: active: 2.98 µM

CC(C)=CC1C(C(=O)OCc2cccc(Oc3ccccc3)c2)C1(C)C (centres undefined)
Potency [6]: inactive
Potency [2, 10]: inactive

CCN(CC)N=O
Potency [7]: inactive
Potency [2, 10]: inactive

CCCCOC(=O)CCC(=O)OCCCC
Potency [1]: inconclusive: 61.1 µM [rising, partial curve, poor fit]
Potency [8]: inactive

CC(C)(C)OOC(C)(C)CCC(C)(C)OOC(C)(C)C
Potency [7]: inconclusive: 68.6 µM [cytotoxic, single point]
Potency [2, 10]: inactive
Potency [4]: inactive

c1cc2ccc3cccc4ccc(c1)c2c34
Potency [1]: active: 32.1 µM
Potency [2, 10]: inconclusive: 62.2 µM
Potency [3]: inconclusive: 0.286 µM [rising, partial curve]
Potency [4]: active: 28.6 µM
Potency [8]: inconclusive: 51.3 µM [cytotoxic, partial curve, poor fit]

S=C1NCCN1
Potency [1]: inconclusive: 27.3 µM [rising, single point]
activity change, negative = inhibition [2, 10]: inconclusive: -25.6%
activity change, negative = inhibition ([2]; at 92.4 µM (top of the series)): inactive: 9.31%
Potency [4]: inactive

OC(O)C(Cl)(Cl)Cl
activity change, negative = inhibition ([2]; at 42.5 µM (top of the series)): inactive: 14.9%

O=C1CCCO1
activity change, negative = inhibition ([2]; at 92.4 µM (top of the series)): inactive: 11.1%

Cc1cc(=O)[nH]o1
Potency [2, 10]: inactive
Potency [3]: inactive

CC(C)N1C(=O)c2ccccc2NS1(=O)=O
Potency [2, 10]: inactive
Potency [3]: inconclusive: 38.5 µM [cytotoxic, partial curve, poor fit]

CC(=[OH+])/C=C(/C)[O-].CC(=[OH+])/C=C(\C)[O-].CC(=[OH+])/C=C(\C)[O-].[Fe]
activity change, negative = inhibition [2, 10]: inconclusive: 7.29%

O=C(O)C(Cl)Cl
Potency [2, 10]: inactive

N#CS
activity change, negative = inhibition [2, 10]: inconclusive: 3.94%

C=CC(C)=O
Potency [2, 10]: inconclusive: 53.2 µM [falling, partial curve, poor fit]

COC(C)(C)C
Potency [9]: inconclusive: 13.3 µM [rising, full curve, poor fit]
Potency [4]: inconclusive: 13.3 µM [cytotoxic, full curve]

O=C(O)COc1ccc(Cl)cc1Cl
Potency [2, 10]: inconclusive: 0.243 µM [falling, single point]
activity change, negative = inhibition [2, 10]: inconclusive: 5.71%
activity change, negative = inhibition ([2]; at 92.4 µM (top of the series)): inactive: 4.65% [middle of 4 runs]

CCCN(CC1CC1)c1c([N+](=O)[O-])cc(C(F)(F)F)cc1[N+](=O)[O-]
activity change, negative = inhibition [2, 10]: inconclusive: -35.3%

CCCCOC(=O)c1ccccc1C(=O)OCCCC
Potency [2, 10]: inconclusive: 54.5 µM [falling, partial curve]
activity change, negative = inhibition [2, 10]: inconclusive: -19.8%

Cc1cc(C)cc(OP(=O)(Oc2cc(C)cc(C)c2)Oc2cc(C)cc(C)c2)c1
Potency [2, 10]: inconclusive: 44 µM [rising, partial curve, poor fit]
Potency [3]: inactive
Potency [4]: inconclusive: 78.2 µM [rising, partial curve, poor fit]

CCN(Cc1ccc(Cl)nc1)/C(=C/[N+](=O)[O-])NC
activity change, negative = inhibition [2, 10]: inconclusive: 10.7% [at 42.5 µM]

COC(=O)c1c(C(F)F)nc(C(F)(F)F)c(C2=NCCS2)c1CC(C)C
Potency [2, 10]: inconclusive: 54.5 µM [falling, partial curve]

O=c1[nH]c2ccccc2o1
Potency [9]: inactive
Potency [4]: inconclusive: 27.4 µM [cytotoxic, partial curve, poor fit]

Cc1cc(Cl)ccc1OCC(=O)O
activity change, negative = inhibition [2, 10]: inconclusive: 8.67%

CCCC[N+]1(C)CCCCC1
activity change, negative = inhibition [2, 10]: inconclusive: 0.874%
Potency [4]: inconclusive: 68.7 µM [cytotoxic, single point] and inconclusive: 21.6 µM [cytotoxic, full curve]

O=[N+]([O-])c1cccc2cccnc12
Potency [2, 10]: inactive

CCc1ccccc1N
activity change, negative = inhibition [2, 10]: inconclusive: -0.395%
Potency [3]: inconclusive: 0.193 µM [cytotoxic, partial curve, poor fit]

CCC[N+]1(C)CCCCC1
activity change, negative = inhibition [2, 10]: inconclusive: -25.7%
Potency [4]: inconclusive: 24.3 µM [rising, single point]

Nc1nc(=S)[nH][nH]1
Potency [2, 10]: inactive

COc1ccc2c(c1OC)C(=O)O[C@@H]2[C@H]1c2cc3c(cc2CCN1C)OCO3
Potency [2, 10]: inactive

CCOP(=S)(OCC)Oc1ccc(Cl)cc1Cl
Potency [2, 10]: inconclusive: 21.7 µM [rising, full curve]

CCN(CC)C(=O)SCc1ccc(Cl)cc1
Potency [2, 10]: active: 25.1 µM and active: 27.3 µM
Potency [4]: inactive

CC(=O)OC(c1ccccc1)C(Cl)(Cl)Cl (centres undefined)
activity change, negative = inhibition [2, 10]: inconclusive: -2.59%

Cn1sc(Cl)cc1=O
Potency [2, 10]: inactive
Potency [3]: inactive
Potency [4]: inconclusive: 8.63 µM [rising, full curve]

COc1ccc(C=O)cc1
Potency [2, 10]: inactive

OCCSSCCO
activity change, negative = inhibition [2, 10]: inconclusive: 11.8%
Potency [3]: inconclusive: 54.5 µM [cytotoxic, single point]

COP(N)(=O)SC (centres undefined)
Potency [2, 10]: inactive

CCOC(=O)CBr
activity change, negative = inhibition [2, 10]: inconclusive: 4.47%

CCCCc1ccccc1
Potency [2, 10]: inactive

CC(Cl)CCl (centres undefined)
activity change, negative = inhibition [2, 10]: inconclusive: -3.41%

Nc1nc(N)nc(N)n1
Potency [2, 10]: inactive

C=CCCl
Potency [2, 10]: inactive

ClC1=C(Cl)[C@]2(Cl)[C@H]3[C@H]([C@H]4C=C[C@H]3C4)[C@@]1(Cl)C2(Cl)Cl
Potency [2, 10]: inconclusive: 15.4 µM [full curve]
Potency [3]: inconclusive: 27.3 µM [rising, full curve]
Potency [4]: inconclusive: 34.4 µM [rising, partial curve]

CC(=O)CCc1ccc2c(c1)OCO2
Potency [2, 10]: inactive
Potency [4]: inconclusive: 61.1 µM [cytotoxic, partial curve, poor fit]

C=CCO
Potency [2, 10]: inactive
Potency [3]: inactive
Potency [4]: inconclusive: 32 µM [rising, single point]

CCN(CCO)CCO
Potency [2, 10]: inactive

CC1(C)[C@H](C=C(Cl)Cl)[C@@H]1C(=O)O[C@@H](C#N)c1cccc(Oc2ccccc2)c1
Potency [2, 10]: inconclusive: 13.7 µM [falling, single point]
Potency [4]: inconclusive: 19.3 µM [rising, partial curve]
